Data: patent US20230303698A1 (published 2023)
Like-named read-outs stand apart in the source and are kept apart here.

How the values were obtained:
Assay in all cases: FACS
human 4-1BB [1] = target: T1, human 4-1BB (human, UniProt Q07011 24-255)
cynomolgus monkey 4-1BB = target: T2, cynomolgus monkey 4-1BB (cynomolgus monkey)
T2 chain: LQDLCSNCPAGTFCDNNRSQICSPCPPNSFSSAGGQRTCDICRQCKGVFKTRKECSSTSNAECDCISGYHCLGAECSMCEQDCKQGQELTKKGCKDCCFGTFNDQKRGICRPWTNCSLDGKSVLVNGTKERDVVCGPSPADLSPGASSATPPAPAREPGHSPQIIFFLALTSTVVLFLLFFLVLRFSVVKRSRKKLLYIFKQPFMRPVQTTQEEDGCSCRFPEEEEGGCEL

human 4-1BB [2] = target: T1, human 4-1BB; remark: listed apart in the source
human OX40 = target: T3, human OX40 (human, UniProt P43489 29-277)
T3 chain: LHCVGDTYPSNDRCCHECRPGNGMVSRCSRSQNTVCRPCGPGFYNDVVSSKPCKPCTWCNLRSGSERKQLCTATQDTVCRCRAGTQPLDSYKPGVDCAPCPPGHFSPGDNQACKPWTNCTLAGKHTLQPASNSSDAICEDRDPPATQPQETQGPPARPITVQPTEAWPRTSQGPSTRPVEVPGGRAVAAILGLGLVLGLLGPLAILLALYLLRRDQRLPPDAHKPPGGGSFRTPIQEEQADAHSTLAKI

| Binder | EC50 (human 4-1BB [1]) | EC50 (cynomolgus monkey 4-1BB) | EC50 (human 4-1BB [2]) | EC50 (human OX40) |
| --- | --- | --- | --- | --- |
| PR003334 (bispecific antibody) light: EIVMTQSPATLSVSPGERATLSCRASQSISSNLGWYQQKPGQAPRLLIYGASTRATGIPARFSGSGSGTEFTLTISSLQSEDFAVYYCQQYQSWPPLTFGGGTKVEIKRTVAAPSVFIFPPSDEQLKSGTASVVCLLNNFYPREAKVQWKVDNALQSGNSQESVTEQDSKDSTYSLSSTLTLSKADYEKHKVYACEVTHQGLSSPVTKSFNRGEC heavy: QVQLVESGGGVVQPGRSLRLSCAASGFTFRSFGMHWVRQAPGKGLEWVAVISYDASNEYYADSVKGRFIISRDNSKDTLYLQMNSLRAGDTAVYYCAKGGGLRWYFAYWGQGTLVTVSSASTKGPSVFPLAPSSKSTSGGTAALGCLVKDYFPEPVTVSWNSGALTSGVHTFPAVLQSSGLYSLSSVVTVPSSSLGTQTYICNVNHKPSNTKVDKKV[letters of human IgG1 Fc with changes not shown]EPKSSDKTHTPPPPPRTEVQLLESGGGLVQLGGSLRLSCAASGFTFSRYAMTWVRQAPEKGLEWVSSISGSGDDTYYGDSVKGRFTISRDNSQNTVYLQMNSLRAEDTAVYFCAKEKAGTTGDYYYNVDVWGQGTTVTVSS | 0.483 nM | 0.658 nM |  |  |
| PR003335 (bispecific antibody) light: EIVMTQSPATLSVSPGERATLSCRASQSISSNLGWYQQKPGQAPRLLIYGASTRATGIPARFSGSGSGTEFTLTISSLQSEDFAVYYCQQYQSWPPLTFGGGTKVEIKRTVAAPSVFIFPPSDEQLKSGTASVVCLLNNFYPREAKVQWKVDNALQSGNSQESVTEQDSKDSTYSLSSTLTLSKADYEKHKVYACEVTHQGLSSPVTKSFNRGEC heavy: QVQLVESGGGVVQPGRSLRLSCAASGFTFRSFGMHWVRQAPGKGLEWVAVISYDASNEYYADSVKGRFIISRDNSKDTLYLQMNSLRAGDTAVYYCAKGGGLRWYFAYWGQGTLVTVSSASTKGPSVFPLAPSSKSTSGGTAALGCLVKDYFPEPVTVSWNSGALTSGVHTFPAVLQSSGLYSLSSVVTVPSSSLGTQTYICNVNHKPSNTKVDKKV[letters of human IgG1 Fc with changes not shown]EPKSSDKTHTPPPPPRTEVQLVESGGGVVQPGGSLRLSCAASGFTFSNYAMTWVRQAPEKGLEWVSSISGSGVSTYYADSVKGRFTISRDNSKNTLYLQMTRLTAEDTAVYFCAKEGSSETDDHYYNVDVWGQGTTVTVSS | 0.74 nM | 0.797 nM | 1.35 nM |  |
| PR003338 (bispecific antibody) light: EIVMTQSPATLSVSPGERATLSCRASQSISSNLGWYQQKPGQAPRLLIYGASTRATGIPARFSGSGSGTEFTLTISSLQSEDFAVYYCQQYQSWPPLTFGGGTKVEIKRTVAAPSVFIFPPSDEQLKSGTASVVCLLNNFYPREAKVQWKVDNALQSGNSQESVTEQDSKDSTYSLSSTLTLSKADYEKHKVYACEVTHQGLSSPVTKSFNRGEC heavy: QVQLVESGGGVVQPGRSLRLSCAASGFTFRSFGMHWVRQAPGKGLEWVAVISYDASNEYYADSVKGRFIISRDNSKDTLYLQMNSLRAGDTAVYYCAKGGGLRWYFAYWGQGTLVTVSSASTKGPSVFPLAPSSKSTSGGTAALGCLVKDYFPEPVTVSWNSGALTSGVHTFPAVLQSSGLYSLSSVVTVPSSSLGTQTYICNVNHKPSNTKVDKKV[letters of human IgG1 Fc with changes not shown]EPKSSDKTHTPPPPPRTEVQLLESGGGLVQPGGSLRLSCAASGFTFSNYAMSWFRQPPETGLKWVSSIDASGGDTYYADSVKGRFTISRDNSKNTLYLQMNSLRAEDTAVYYCAKEGSHGTDDSHYDVDVWGQGTTVTVSS |  | 1.29 nM |  |  |
| PR003487 (bispecific antibody) light: EIVMTQSPATLSVSPGERATLSCRASQSISSNLGWYQQKPGQAPRLLIYGASTRATGIPARFSGSGSGTEFTLTISSLQSEDFAVYYCQQYQSWPPLTFGGGTKVEIKRTVAAPSVFIFPPSDEQLKSGTASVVCLLNNFYPREAKVQWKVDNALQSGNSQESVTEQDSKDSTYSLSSTLTLSKADYEKHKVYACEVTHQGLSSPVTKSFNRGEC heavy: QVQLVESGGGVVQPGRSLRLSCAASGFTFRSFGMHWVRQAPGKGLEWVAVISYDASNEYYADSVKGRFIISRDNSKDTLYLQMNSLRAGDTAVYYCAKGGGLRWYFAYWGQGTLVTVSSASTKGPSVFPLAPSSKSTSGGTAALGCLVKDYFPEPVTVSWNSGALTSGVHTFPAVLQSSGLYSLSSVVTVPSSSLGTQTYICNVNHKPSNTKVDKKV[letters of human IgG1 Fc with changes not shown]EPKSSDKTHTPPPPPRTEVQLVESGGGVVQPGGSLRLSCAASGFTFSNYAMTWVRQAPEKGLEWVSSISGSGVSTYYADSVKGRFTISRDNSKNTLYLQMTRLTAEDTAVYFCAKEGSSETDDHYYNVDVWGQGTTVTVSSEVQLVESGGGVVQPGGSLRLSCAASGFTFSNYAMTWVRQAPEKGLEWVSSISGSGVSTYYADSVKGRFTISRDNSKNTLYLQMTRLTAEDTAVYFCAKEGSSETDDHYYNVDVWGQGTTVTVSS | 0.755 nM |  |  |  |
| PR004277 (bispecific antibody) chain 1: QVQLVESGGGVVQPGRSLRLSCAASGFTFRSFGMHWVRQAPGKGLEWVAVISYDASNEYYADSVKGRFIISRDNSKDTLYLQMNSLRAGDTAVYYCAKGGGLRWYFAYWGQGTLVTVSSASTKGPSVFPLAPSSKSTSGGTAALGCLVKDYFPEPVTVSWNSGALTSGVHTFPAVLQSSGLYSLSSVVTVPSSSLGTQTYICNVNHKPSNTKVDKKVEPKSC chain 2: EIVMTQSPATLSVSPGERATLSCRASQSISSNLGWYQQKPGQAPRLLIYGASTRATGIPARFSGSGSGTEFTLTISSLQSEDFAVYYCQQYQSWPPLTFGGGTKVEIKRTVAAPSVFIFPPSDEQLKSGTASVVCLLNNFYPREAKVQWKVDNALQSGNSQESVTEQDSKDSTYSLSSTLTLSKADYEKHKVYACEVTHQGLSSPVTKSFNRGECEPKSSDKTHTPPPPPEVQLLESGGGLVQPGGSLRLSCAASGFTFSSYAMSWVRQAPGKGLEWVSAISGRGGSTFYADSVRGRFTISRDNSKNTLYLQMNSLRAEDTAMYYCVDGTTGTTDVDYWGQGTLVTVSS[letters of human IgG1 Fc with changes not shown] |  |  |  | 3.46 nM |
